Assay results reported in paper PMC10726135.
This is one part of the list. At the low end of the ranking the order means little. The protein was read in a cell extract, so binding may be indirect.

Each sequence was assayed against T1, HNF4alpha8 (COS-7 nuclear extract) (UniProt P41235-5) (assay: protein-binding microarray). Conditions: COS-7 nuclear extract on double-stranded Agilent 4x180k PBM; binding buffer, salt, pH and temperature not given; high values mean tight binding; double strand, one strand shown; sequences stand for … in …GCCTAGGGAGATTAGAGTATCGGTCGA.
T1 sequence: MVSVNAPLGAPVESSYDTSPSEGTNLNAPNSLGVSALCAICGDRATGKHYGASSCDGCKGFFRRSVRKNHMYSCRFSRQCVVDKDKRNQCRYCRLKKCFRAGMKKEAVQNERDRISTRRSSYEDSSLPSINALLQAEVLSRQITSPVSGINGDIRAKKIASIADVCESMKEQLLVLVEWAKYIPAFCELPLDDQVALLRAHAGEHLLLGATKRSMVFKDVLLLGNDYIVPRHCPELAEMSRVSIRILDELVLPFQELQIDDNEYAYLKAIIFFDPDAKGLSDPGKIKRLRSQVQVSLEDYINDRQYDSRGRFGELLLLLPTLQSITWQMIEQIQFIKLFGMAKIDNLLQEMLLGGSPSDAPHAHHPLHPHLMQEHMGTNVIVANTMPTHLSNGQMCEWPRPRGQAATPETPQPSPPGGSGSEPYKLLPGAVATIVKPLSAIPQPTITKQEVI

Row | Sequence | binding signal (log2 normalized intensity)
1 | ATCTTTCTGTCTCATTCCCTGACAGACCCC | 3.87
2 | ACTGCGGACATAGCTTGCCACAGCATGTTA | -1.35
3 | GATTTACATTGAGTTAACTATTGAGACTTT | 2.42
4 | ATCAACTTTCAGAAGGGGACAAGCACATTA | -1.28
5 | TACAAGGTCCATAAAACCAGTCAGGCAAAC | -1.21
6 | AAGGGAGAAAGACATGTTTCTAACTGCCCG | 0.0984
7 | TCTGGGGTCCTCTGCTGCCCTCTAGGGTTG | 1.99
8 | GCAGAAATCAACTGCCCTCTGCCTTTCAGG | 0.0509
9 | CTCTCTGAAATGAAGGTCAGCAAATTTGTT | 1.42
10 | CTTCGTCCTGAGCAGTCCCTTCCCCCCTCC | 5.7
11 | GCAGAAACCATCTGGCTTGGCCCCCGGACC | 3.7
12 | CTGCTCAAAGGGGAAAGAGGGGGAAGAGAT | -1.34
13 | CAGAGCCTGCCCCCGGGGCCGCCTTGGAAA | 1.04
14 | GATGTGGAATGAAACCAGTTTCAAAACCTG | -1.45
15 | GGCAGTCGGGAAATTCCAGCAGGAATTGAT | -1.3
16 | CTCCCTTTTCAACAATGTTATCTTTTCAAG | 1.33
17 | GTCATAGCTTTATCTCTCCCCCACCACTGC | 4.61
18 | AAACCTTCCAAAGTTCAACCTCATTATCTT | 2.7
19 | TTCCATACCAAAGACTGAGCAGCTGGAGGG | -1.38
20 | ATTAAGAGGCTACAACCAGACTTGGAGAGA | -1.37
21 | CTAACCATAGGAGGCTGGTCTAAGTCCACA | 2.76
22 | ACTTTGGAATGGCAGTGCTTGTCCAAGATG | 0.498
23 | GGGTTAGGGTTAGGGTTACGGTTAGGGTTA | 1.59
24 | CTGCAGAGGCTGGTTCACACCCCACGTACA | 1.76
25 | GAGGAAAACTGGGCAAAGGTCAGGATCTCA | 5.3

Row | Sequence | binding signal (log2 normalized intensity)
26 | CAAAGTCCACCTCAACCTCCCCCTGGGGAC | 3.8
27 | GATTCCAGCTCTCGGATCCTCTGGGCTGGC | -1.25
28 | ACCCCTAATGAATGGCAAATTAAACAGCAT | -1.32
29 | AGGAGCGAGTCAAGGGTCAATCCTCTCTTT | 3.09
30 | CCATTGTAGATTCAATAATACAAGAGGCTT | -1.45
31 | AGGCTAGAATGGAAACCAATAACTGCTTCT | -1.53
32 | GAGAGTACACAGAAGTTAATTTCAAAACAA | -1.38
33 | TGTGTGCCTGAGAATGAGGGGCAGGCTTAG | -1.37
34 | GTTTTCTGTCTTCATCCTGAGAGGGCTCAA | -0.86
35 | AGAAAAATATGTGGACTTCAAAGGTACTTA | 0.953
36 | ACAGACATAAACACAGACACACATGAGCTA | -1.33
37 | ATTGACCACCTCCTCTGAAGCTAGGACAAG | 0.0374
38 | GCCCAAAGGTCAGTCTGCAGCTAATAAACT | 2.64
39 | ATAAGATGTGTAAAACACAAATCTCCACAA | -1.41
40 | AAGAGGCTCTTCAATGCATTCCTGAAGCCT | -1.31
41 | CCCTTTGGTCTGGAACACAGAGGGAAATGC | -0.923
42 | CAGTGCTGCCATTTGAGGAGTGTTGAGATT | 0.359
43 | TCACAGTGCCTCTGCAAGTTGGCCTTACTA | -0.0691
44 | CCCCCAGTGGAATGTGCCCTTTGACCTCTC | 10.3
45 | ACGGTGTCCCTGGCCAATCCCAGGGTCAGA | 2.07
46 | GGACTTTGCTCTGCTCATTTTTCCCCTGAC | 5.14
47 | GCTAGAGGCCCTGCATTAAACAAGAGAGAG | -1.32
48 | CACCTTTTTTGGCCTTTACCCCTTGAGTTT | 4.54
49 | AAAAGGGACAAAGGTGAGTGCAACCTTCTC | 2.49
50 | TAAATGCAGTTTGTCAAGTGCCCGGATAAA | 1.23

Row | Sequence | binding signal (log2 normalized intensity)
51 | TGGTATGTTTGGATTGGGCAATGACCTGGA | 2.7
52 | CATTCACATGACCTTTGTCCGTTCCTGCCT | 6.63
53 | GCAGGGAGAGTTGCACCCAGGCCGTTGGAC | 0.534
54 | AATCCCATGCTGATGGCAAACACCTGGCCA | -1.36
55 | GCTGTCTACTCTGGGGGTCAGCAATGGTAA | 2.36
56 | CTGGTGCCTCCTTATCTCCCCAACTGTAAA | 3.35
57 | CACAAAAGCTGCTGCCAAGCGTCAGTCATA | -1.35
58 | ATCTGAAGGAAATGGACAACGGAAAGACAG | -1.27
59 | CTTGCATTTCTTCAGATGCAACACAGGGGG | -1.39
60 | ACGCTTGACTGGCTCCACCACTTTGCCTAT | -1.34
61 | GGACAGGCCAAATCCAGTAAGGCACGGAGT | -1.26
62 | GGGCCAGGAGCAGGAGCAGAAGCAGGCCTC | -1.23
63 | GAGTTTAGGCATTCTTAGACACAGTCTGAG | -1.42
64 | CCTGAGGTGTGAGAGGGCAAAGGTCACAGC | 8.73
65 | GTTCAACCCTGAATGTGTGCTGGCCTGGTT | 1.65
66 | TGGCTCCAAGGCTGAAGGTCTCGAGGCCTC | -1.42
67 | AGCCTTTTGTCCCAAGGAGAATTTCACAAA | 0.341
68 | AGAGGTCGCGAGAGAACTGAAAAAGGGGAC | -1.32
69 | AGGTGCAGAGAGGGGCAGGGTTCACATAGC | 2.08
70 | AAACTCCAAAGTCCATGCTATTAAGCACTA | 4.07
71 | TGAAGTCCAACCCTCCGTTTCTCTGGGCCT | -1.23
72 | CAGAAAGCAAGAGCACAAGAACAAAAACTG | -1.25
73 | CATAAAGGGTTGAAGAAAGATCACACAAAT | -1.32
74 | CAGAGGGCTGCTTGCAGGAGGCCGGGCGCG | -1.4
75 | ACATGTGCAAGGGCAGCTCCGTTTACCTAG | -1.1

Row | Sequence | binding signal (log2 normalized intensity)
76 | ATGAGCAAACAGAACTGTTAACTTTGTACT | 2.72
77 | CATTTATAGATAAGCACACTAAGGCTAAAG | -1.41
78 | TTTTTCTTTTTTTCCCCCTCACTGAATATG | 4.38
79 | TGGGACTGATAACTTAGGCCCATATTCCTT | -1.31
80 | TGGCTAAGACAGGGGCTATTTCTGACCTTT | 7.32
81 | CCACCCTATTGATGCAAGGACAATGTCTAG | 1.38
82 | TTTTAAAAGCCCTCAAATACTCTGAGTAAA | 0.0993
83 | CAGCTGACCAACAGAGAAGGCCCTGAACTC | -1.33
84 | GGTTCTGGCACCTGAAGCTGCCCTTTGCAC | 6.19
85 | CCTCATCTGAAAAAAGCTATCATTTGTCAC | -0.193
86 | TATTGTGGGTTCTTGCCCTTTGGTCTGGAA | 5.29
87 | GAAGACACAAAGCTTGGGTTCACATTCCAG | 1.11
88 | TGTGAATCTCCTGCTTTTGGAAAACTGGCC | 0.0534
89 | GACTTTGGTTGGATTTCTTGGCTTCTCTTG | 0.989
90 | AGGGGCATCCTCATTGCCTCTGGGCTTTGA | 0.138
91 | GAACAGATATTGGCCAAAGGGCACAAGAGG | 2.29
92 | GCTCAGAGGCACAGTCTGCTTTCAGAGATG | -1.21
93 | TGTGTCTCCAGGAGCAATCATCGCACCTAA | -1.34
94 | GGCAGCCAGCGCAGGGGCTTCTGCTGAGGG | -1.37
95 | GGAGGAAATAGAGAGCAGACAGGGGCTCAG | -1.48
96 | TCAAGGTTTCTTTCCCTGGGGTCAATAGTT | 4.25
97 | TGTGGGTTCAAATCCATTCAGCAGCGTGTA | -0.128
98 | CTTAGACAGTAACCCTTGAGCTCTGCACAG | 2.11
99 | TGAGGCTTTTGAGTCAATAATGGACAAGTT | 0.981
100 | TAATCCCTTATGACGGACAAAGGGCTCTCT | -0.406

Row | Sequence | binding signal (log2 normalized intensity)
101 | GGTACCCTGGCTTGTAATTCAAGACTATAG | -0.817
102 | ATCTCTAAGCAAACATTCCTCCCTCCCTCT | 2.77
103 | TCCCGGAACCGTCTGCCCAGAGCGGCAGCG | -1.29
104 | TCTCTGTAGGTAAACAGTGACTCATGCAAG | 0.144
105 | TCCTGACCAGGGGCCAGCAAGAGGTGACCC | 4.14
106 | TTATTGTGAACTGGAGCAAAGGTCACTCTT | 6.18
107 | AACAGGCATCAACTCTATCATACTCAGCTA | -1.3
108 | GTCCGAACTCACTACAAACGCCTCTAAGCT | -1.32
109 | CCAGCTGTCACCCAGCCAGAATTCTCCCTG | -1.36
110 | CCTTTGTCCCGTTATGGCACCAAGAAACCT | 0.0821
111 | ATCTTGGACTTGGGACTCTGCAGACTGGTG | 4.29
112 | CCCCCACCTGTGAAGATAAGCTGTCAATTT | 1.5
113 | GGCAAGATTTTGTCCTGAGTTATTGGAAGA | 0.282
114 | CAACGTCCAGAGATTTGCTCGCATTCTTCC | -0.919
115 | GTAGGTAAACAGTGACTCATGCAAGCCTGA | -1.37
116 | CCCCAAAGGCAGGCAGCATGGAATGACTTT | -0.344
117 | GGTCCCACACACCTCAAATGCAGGTGAGAG | -1.39
118 | TATCTCTCCAAGGTACTGTGAACTCCAGCT | 0.176
119 | TAGTGTAGTTCCGCTGCTGTCTCGGGGCCA | -1.38
120 | TACTCTCTTTGGAGTGCTCCCGCCTGACCT | 3.1
121 | ACCTTTGCCCTTCTTGTTAACCTCCTATGA | 3.15
122 | CTAATGCCACCATTGATCTAACAGGAGGTG | -1.26
123 | GCGGTTACTTCGAGTACATTGTAACCACCT | 0.886
124 | TCAGTTAAGGCTTTGAAGTAGGGGCTGCTG | -0.875
125 | CCACCTGGTGGCAATGTGTCAGAGAAGGAG | -1.34

Row | Sequence | binding signal (log2 normalized intensity)
126 | ACTGTGTTGCAAATTATTACTCCCACCGTG | 0.0649
127 | GGGTATTTCCTAAACCAACTATAGAAAGCC | -1.39
128 | GCCCCCTCCCCCTGCCGGCGGCGCAGACGG | 4.75
129 | GCCCATAGAATCTTAGGAAAGCACAGCTGA | -1.41
130 | GTTTTATATGAAAACAAAGGAAACCAAACA | -1.03
131 | AATATTTAGCTTTCAGTGACTGCTCATTCT | -1.17
132 | CCAACAGGTCAGGGAGTAGGTTTGATTTGT | 1.1
133 | GTGGGAAATCATTCCAGCTATTCTGCCTTA | -1.25
134 | GTGAGTGTGTTGGCAAGAGATCTGCAGGGT | 1.02
135 | AGTTTGGTGGACTTTGGCCGTGAAGCCGTC | 6.75
136 | AACAAATTGTGTGCAACAGGAGCCCAGAGA | -1.34
137 | CCAGTTCCCTCATTAGTAACTCCAGAGATA | -0.985
138 | ATTAACTAACCTTTGAACCAGATGGCCCTC | 4.3
139 | GAAGCCAGGGGTAAGTTTCTAACTACCATG | -1.29
140 | ACTTATTACCGGTGTGACTTTGGTTGGATT | 1.7
141 | ATGCCTGGGGTTCCAGTTACTGGAGGCTGG | -0.354
142 | CAGGGGGAGGCTCAGAGTCTGTGGAGACAC | -1.38
143 | CCAGGGACCAGGAAGGCAGTAAGAGAGAAA | -1.35
144 | ACTGACAGAGATCAAAAACCAAAGCTGGAG | -1.28
145 | ACCCCCCACTCTTCATATCTTCCCATACTG | 0.437
